The list shows a part of the results. These are further read-outs of the screen, such as a control signal, another cell line or another target. No call is given for them.
Legend:
Assay in all cases: Primary Screen for Target Class Profiling of Small Molecule Inhibitors of Methyltransferases
[1] = target: Glycine N-methyltransferase (Homo sapiens) (UniProt Q14749); settings: purified enzyme, MTase-Glo SAH luminescence; measured here: GNMT inhibition; at 40 µM; stronger effect = lower value
Method in brief: (§1)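 Each enzyme was reacted with SAM and its substrate, with compounds tested once at 40 uM; SAH formed was read by MTase-Glo luminescence.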

[2] = target: Guanidinoacetate N-methyltransferase (Homo sapiens) (UniProt Q14353); settings: purified enzyme, MTase-Glo SAH luminescence; measured here: GAMT inhibition; at 40 µM; stronger effect = lower value
Method in brief: as §1

[3] = target: Histamine N-methyltransferase (Homo sapiens) (UniProt P50135); settings: purified enzyme, MTase-Glo SAH luminescence; measured here: HNMT inhibition; at 40 µM; stronger effect = lower value
Method in brief: as §1

[4] = target: Nicotinamide N-methyltransferase (Homo sapiens) (UniProt P40261); settings: purified enzyme, MTase-Glo SAH luminescence; measured here: NNMT inhibition; at 40 µM; stronger effect = lower value
Method in brief: as §1

[5] = target: Phenylethanolamine N-methyltransferase (Homo sapiens) (UniProt P11086); settings: purified enzyme, MTase-Glo SAH luminescence; measured here: PNMT inhibition; at 40 µM; stronger effect = lower value
Method in brief: as §1
% is scaled to controls: 0 for no effect and ±100 for the full control effect.

| SMILES | activity change, negative = inhibition [1] [%] | activity change, negative = inhibition [2] [%] | activity change, negative = inhibition [3] [%] | activity change, negative = inhibition [4] [%] | activity change, negative = inhibition [5] [%] |
| --- | --- | --- | --- | --- | --- |
| O=C(CCCCCCCCC#CI)Oc1ccccc1 | -18.5 | -18.6 | 11 | -14.1 | -4.5 |
| Cc1cc(C(=O)N2Cc3cnn(C)c3Nc3ccccc32)ccc1CNC(=O)N1CCC[C@H]1C(=S)N1CCCN(C)CC1 | -10.6 | -2.06 | -22.7 | -18.5 | -9.04 |
| Cc1noc([C@@H]2CN(C(=O)CCc3nc4ccccc4s3)C[C@H]2C(N)=O)n1 | -1.97 | -3.6 | -0.67 | -4.08 | -2.79 |
| COC(=O)C1=CO[C@@H](O[C@@H]2O[C@H](CO)[C@@H](O)[C@H](O)[C@H]2O)[C@@H]2C(CO)=CC[C@]12O | 10.3 | 14 | 9.52 | 2.27 | 5.81 |
| CC[C@@]1(O)CCN(C(=O)CCc2nc(-c3ccncc3)no2)C[C@H]1O | -1.59 | -3.09 | -0.284 | -7.13 | -4.13 |
| Cc1c(C(=O)N[C@H](c2cnn(C)c2)C2CC(O)C2)sc2nc[nH]c(=O)c12 (some centres undefined) | -1.73 | -3.98 | 0.52 | -10.1 | 9.95 |
| COc1cccc(CN2CC(C(=O)NCc3cc4ccccc4[nH]3)CCC2=O)c1 (centres undefined) | -23.7 | -17.4 | -7.32 | -17.8 | -23.1 |
| COc1cccc(S(=O)(=O)N2CCC(Cc3nncn3C(C)C)CC2)c1 | 3.16 | 0.954 | 13 | -2.95 | 9.69 |
| CCCn1c(=O)c2cc(Cl)ccc2n2c(=O)n(CC(=O)N3CCN(c4ccccc4F)CC3)nc12 | -7.91 | 1 | -0.174 | -16.5 | -7.28 |
| CC1(C)CC[C@]2(C(=O)O[C@@H]3O[C@H](CO)[C@@H](O)[C@H](O)[C@H]3O)CC[C@]3(C)C(=CCC4[C@@]5(C)CC[C@H](O[C@H]6O[C@H](CO)[C@@H](O)[C@H](O[C@@H]7O[C@H](CO)[C@@H](O)[C@H](O)[C@H]7O)[C@H]6O)C(C)(C)C5CC[C@]43C)[C@@H]2C1 (some centres undefined) | -0.132 | 12.6 | -5.92 | -3.7 | 6.12 |
| O=C(C1CC1)N1CCCC2(CN[S+](=O)([O-])c3cccnc3O2)C1 (centres undefined) | -3.67 | -5.9 | -1.38 | -7.67 | 32.9 |
| O=c1c2ccccc2n2c(-c3ccc(F)cc3)nnc2n1Cc1ccc(F)cc1 | 0.62 | 0 | 4.67 | 3.51 | 3.81 |
| COCC(=O)NC[C@H]1O[C@@H](CO)[C@@H](O)[C@H]1N1CCN(c2cccc(C(F)(F)F)c2)CC1 | -5.71 | -5.62 | 1.95 | -2.21 | 0.403 |
| Cc1cc(CN(C)C2CCCc3ccccc32)no1 (centres undefined) | -5.27 | -3.22 | -1.82 | -15.2 | -4.47 |
| COC(=O)C1(Cc2ccc(O)cc2)OC(=O)C(OC)=C1c1ccc(O)cc1 (centres undefined) | 0 | 2.18 | -1.93 | -12.6 | 3.66 |
| CC(C)Cn1c(=O)c2ccccc2n2c(CCC(=O)Nc3ccc(F)c(F)c3)nnc12 | -12.3 | 0.942 | -2.67 | -30.5 | -6.91 |
| CC(C)C(CO)Nc1nc(Nc2cc(N)cc(Cl)c2)c2ncn(C(C)C)c2n1 (centres undefined) | -7.82 | -1.43 | -3.08 | -36.7 | -3.87 |
| CCN1C(=O)c2cc(C(=O)Nc3ccc(Cl)cc3C)nn2CC1(C)C(=O)NC1CCCC1 (centres undefined) | -0.255 | -0.152 | -2.7 | -2.88 | -2.5 |
| CCCNS(=O)(=O)c1ccc(Cl)c(-c2nnc(-c3ccccc3)o2)c1 | 2.91 | 1.51 | 4.05 | 3 | 2.21 |
| CCOC(=O)CCNc1cc(N2CCc3ccccc3CC2)nc(-c2ccccn2)n1 | -4.33 | – | 12.4 | -5.06 | 24.8 |
| CN1Cc2ncnc(N3CCOCC3)c2CN(c2cccnc2)C1=O | -5.15 | -5.85 | -0.936 | -15.6 | -11.1 |
| Cc1ccc2c(c1)c1c3n2CCN(CC(O)CN2CCCCC2)C3CCC1 (centres undefined) | 0.276 | 0 | -15.1 | 6.35 | -1.08 |
| Cc1cc(=O)oc2c(C=O)c(O)ccc12 | -54.5 | 0.53 | 5.05 | -21.9 | -16.8 |
| O=C(c1ccccc1-c1ccccc1)N1CCCn2cncc2C1 | -1.6 | 1.58 | 0.065 | -4.53 | 1.19 |
| CCCS(=O)(=O)NCC1CN(CC2CC2)CC12CCCCC2 (centres undefined) | -6.16 | -7.14 | -5.98 | -11.9 | -8.18 |
| CC1(C(=O)NC2CCCCCC2)Cn2c(cc3ccccc32)C(=O)N1Cc1ccco1 (centres undefined) | 0.481 | 0 | 1.66 | -4.3 | -2.67 |
| c1ccc(CC2=NOC3(CCN(Cc4ccccc4)C3)C2)cc1 (centres undefined) | -5.09 | -7.25 | -1.65 | -16.9 | -9.45 |
| COc1ccc2c(c1)OCC(CNC(=O)c1ccc(-c3nnn(C)n3)cc1)C2 (centres undefined) | 1.12 | 0.806 | 1.39 | 3 | -10.8 |
| O=C(CCc1nnc2n(Cc3ccc(Cl)cc3)c(=O)c3ccccc3n12)N1CCN(c2ccccn2)CC1 | -21.5 | 0 | -5.16 | -6.7 | -0.664 |

From PubChem BioAssay AID1745853 (National Center for Advancing Translational Sciences (NCATS), 2022)
